These results are taken from article PMC4081100.

This is a selection; strong and weak results do not stand in their true shares. For some of these results: At the low end of the ranking the order means little. The list shows a part of the results. For some of these results: Construct or isoform of the protein are uncertain.

Holding throughout (assay): universal protein binding microarray (PBM)
Holding throughout (conditions): transcription factors of Arabidopsis thaliana; high values mean tight binding; most listed sequences are background and not binding sites; double strand, one strand shown

The target of assay [1] is T1, GST-ANAC092(1-176) (UniProt Q9FKA0).
T1 sequence: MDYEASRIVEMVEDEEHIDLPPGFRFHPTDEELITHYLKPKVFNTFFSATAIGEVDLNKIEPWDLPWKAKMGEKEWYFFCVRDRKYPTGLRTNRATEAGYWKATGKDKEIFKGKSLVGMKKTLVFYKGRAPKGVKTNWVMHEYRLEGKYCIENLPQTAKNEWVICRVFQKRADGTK

For assay [2], the target named is GST-NTL6(1-168) (UniProt Q9SCK6).
Assay [3] has as its target T2, GST-ANAC019 NAC domain (UniProt Q9C932).
T2 sequence: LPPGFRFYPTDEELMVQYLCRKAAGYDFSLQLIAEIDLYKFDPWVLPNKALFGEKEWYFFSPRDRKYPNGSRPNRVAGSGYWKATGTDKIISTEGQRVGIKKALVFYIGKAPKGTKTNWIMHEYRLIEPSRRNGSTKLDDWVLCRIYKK

Assay [4] has as its target T3, GST-ANAC055(1-171) (UniProt Q9LDY8).
T3 sequence: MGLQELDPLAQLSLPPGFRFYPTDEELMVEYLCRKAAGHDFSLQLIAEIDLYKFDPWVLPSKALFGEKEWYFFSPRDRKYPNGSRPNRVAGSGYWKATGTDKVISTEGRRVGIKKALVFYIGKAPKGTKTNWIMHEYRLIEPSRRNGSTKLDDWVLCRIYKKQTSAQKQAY

Assay [5] concerns the target T4, GST-ATAF1 NAC domain (UniProt Q39013).
T4 sequence: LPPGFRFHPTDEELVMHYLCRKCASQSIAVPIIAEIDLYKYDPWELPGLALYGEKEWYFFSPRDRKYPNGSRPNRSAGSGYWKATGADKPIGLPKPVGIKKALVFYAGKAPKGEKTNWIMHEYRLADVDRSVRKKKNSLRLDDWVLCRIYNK

In assay [6] the target is T5, GST-NTL8 NAC domain (UniProt Q9XIN7).
T5 sequence: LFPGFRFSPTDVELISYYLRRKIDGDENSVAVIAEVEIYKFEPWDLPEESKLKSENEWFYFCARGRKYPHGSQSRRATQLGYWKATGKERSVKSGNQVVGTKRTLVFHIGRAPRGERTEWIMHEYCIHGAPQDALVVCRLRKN

Assay [7] has as its target T6, GST-VOZ2 (Arabidopsis thaliana) (UniProt Q9SLB9).
T6 sequence: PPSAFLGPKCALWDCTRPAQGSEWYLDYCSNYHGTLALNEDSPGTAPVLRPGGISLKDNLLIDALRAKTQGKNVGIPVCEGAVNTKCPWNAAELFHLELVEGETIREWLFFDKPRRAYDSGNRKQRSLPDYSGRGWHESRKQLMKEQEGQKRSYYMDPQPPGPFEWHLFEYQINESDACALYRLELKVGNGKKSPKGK

Assay [8] deals with GST-WRKY1(266-371) (UniProt Q9SI37).
In assay [9] the target is T7, GST-NST2(1-184) (UniProt Q9M274).
T7 sequence: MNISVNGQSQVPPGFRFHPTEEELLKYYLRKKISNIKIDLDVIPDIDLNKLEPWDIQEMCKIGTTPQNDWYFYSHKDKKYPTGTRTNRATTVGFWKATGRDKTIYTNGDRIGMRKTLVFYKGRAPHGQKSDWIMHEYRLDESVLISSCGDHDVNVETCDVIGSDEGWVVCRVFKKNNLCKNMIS

Assay [10] deals with T8, GST-ANAC092(1-285) full length (UniProt Q9FKA0).
T8 sequence: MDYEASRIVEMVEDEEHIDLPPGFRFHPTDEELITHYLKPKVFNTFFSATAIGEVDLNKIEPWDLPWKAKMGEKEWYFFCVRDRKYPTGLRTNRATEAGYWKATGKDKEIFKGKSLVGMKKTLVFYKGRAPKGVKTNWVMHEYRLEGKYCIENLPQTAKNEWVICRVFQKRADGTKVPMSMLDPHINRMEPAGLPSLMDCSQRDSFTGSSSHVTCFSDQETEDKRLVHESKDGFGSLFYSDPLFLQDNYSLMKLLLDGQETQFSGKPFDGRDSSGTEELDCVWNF

In assay [11] the target is T9, GST-VND7 NAC domain (UniProt Q9C8W9).
T9 sequence: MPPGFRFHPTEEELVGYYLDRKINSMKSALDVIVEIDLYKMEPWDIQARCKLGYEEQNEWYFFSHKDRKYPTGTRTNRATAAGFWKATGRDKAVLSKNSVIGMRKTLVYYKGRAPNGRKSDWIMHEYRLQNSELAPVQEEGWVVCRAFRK

Assay [12] deals with T10, GST-NAP(1-166) (UniProt O49255).
T10 sequence: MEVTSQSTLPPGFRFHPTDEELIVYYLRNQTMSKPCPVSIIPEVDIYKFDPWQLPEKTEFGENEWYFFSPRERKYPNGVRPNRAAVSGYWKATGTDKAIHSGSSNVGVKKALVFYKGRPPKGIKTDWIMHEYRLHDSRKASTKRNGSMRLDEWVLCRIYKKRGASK

With AAACACGC, the binding signal is 0.415 E-score in assay [1]; -0.00187 E-score in assay [2]; 0.261 E-score in assay [3]; 0.262 E-score in [4]; 0.233 E-score in assay [5]; -0.00318 E-score in assay [6]. Also, the binding signal in assay [7] was 0.155 E-score; in assay [8] it was -0.04 E-score.

Regarding TAACGTAA, the binding signal worked out at 0.452 E-score in assay [1]; 0.25 E-score in assay [3]; 0.402 E-score in assay [9]; 0.0889 E-score in [7]; 0.0682 E-score in [8].

TCGGTCAA: the binding signal in assay [3] was -0.00981 E-score; in assay [5] it was -0.0221 E-score; in assay [10], 0.0439 E-score; in assay [6], 0.0239 E-score; in [11] it was -0.0861 E-score; in [7] it was 0.136 E-score.

Turning to AGCGTGTA, the binding signal in assay [1] is 0.418 E-score; in assay [2], -0.0758 E-score; in [3], 0.0634 E-score; in assay [10] it was 0.436 E-score; in [12] it was 0.198 E-score; in assay [6] it was -0.0901 E-score. Further, the binding signal was -0.0449 E-score in assay [7] and -0.055 E-score in assay [8].

Turning to CAAGTTAC, the binding signal in assay [1] was 0.371 E-score; in assay [2] it was 0.256 E-score; in assay [3], 0.163 E-score; in assay [12] it was 0.144 E-score; in [7], 0.00292 E-score; in [8], -0.0191 E-score.

Turning to AACGTAAC, the binding signal is 0.15 E-score in [2], 0.15 E-score in [3], -0.00207 E-score in assay [7] and 0.0144 E-score in assay [8].

With ATACGCAA, the binding signal turned out to be 0.485 E-score in [1]; 0.0867 E-score in assay [2]; 0.397 E-score in [4]; 0.459 E-score in assay [12]; 0.406 E-score in assay [9]; 0.169 E-score in assay [7]. In [8], this sequence yielded a binding signal of 0.027 E-score.

For the sequence ATTACGTA, the binding signal in assay [10] worked out at 0.449 E-score; in assay [11], 0.458 E-score; in [7], 0.165 E-score.

Take TAAGGTCA: the binding signal in assay [1] was -0.0377 E-score; in assay [2] it was 0.242 E-score; in [3] it was -0.0928 E-score; in assay [4], 0.0336 E-score; in assay [10], -0.00901 E-score; in [9] it was 0.0344 E-score. For the same sequence, the binding signal in [7] was 0.178 E-score; in assay [8] it was 0.441 E-score.

For the sequence ACGCCAAC, the binding signal was 0.404 E-score in assay [1]; -0.066 E-score in assay [2]; -0.106 E-score in assay [6]; 0.151 E-score in [7]; -0.135 E-score in [8].

In the case of CAAGCAAC, the binding signal in assay [1] is 0.426 E-score; in assay [2], 0.239 E-score; in assay [3], 0.1 E-score; in assay [5], 0.0251 E-score; in assay [12], -0.0691 E-score; in [7], -0.041 E-score. This sequence gave a binding signal in assay [8] of -0.0146 E-score.

For the sequence TTAAGCAA, the binding signal in assay [2] is 0.471 E-score; in assay [3], 0.0483 E-score; in assay [4], 0.133 E-score; in [12] it was -0.0933 E-score; in assay [9], 0.334 E-score; in assay [7], -0.0869 E-score. In addition, the binding signal in assay [8] is -0.154 E-score.

With GTAACTTA, the binding signal in [1] worked out at 0.271 E-score; in assay [2], 0.375 E-score; in assay [3], 0.03 E-score; in [5], 0.233 E-score; in [12], 0.133 E-score; in assay [9], 0.306 E-score. Moreover, the binding signal in assay [7] was 0.139 E-score; in [8], -0.0548 E-score.

On to AATACTTA, for which the binding signal in assay [1] is -0.0424 E-score; in assay [4], 0.162 E-score; in assay [12], -0.0246 E-score; in assay [6] it was 0.0845 E-score; in [7] it was 0.0468 E-score; in [8] it was -0.123 E-score.

Regarding TCACGTAA, the binding signal in assay [1] is 0.443 E-score; in [2], 0.0398 E-score; in [3], 0.47 E-score; in assay [12] it was 0.405 E-score; in [7], 0.124 E-score; in [8], 0.0388 E-score.

Regarding CACGTTAA, the binding signal in assay [1] was 0.429 E-score; in assay [3], 0.125 E-score; in [12], 0.129 E-score; in assay [9], 0.301 E-score; in assay [6] it was -0.04 E-score; in assay [7], 0.119 E-score. In addition, in assay [8], the binding signal was -0.119 E-score.

For ATTGCGTG, the binding signal in assay [2] was found to be 0.0376 E-score; in assay [7], 0.143 E-score; in assay [8], 0.0947 E-score.

With TTAAGAAA, the binding signal in [3] was -0.000405 E-score; in assay [10], 0.227 E-score; in assay [12], -0.11 E-score; in assay [6], 0.273 E-score; in assay [11], 0.0318 E-score; in [7] it was 0.164 E-score.

Take ATGCGTAC: the binding signal in assay [1] is 0.362 E-score; in [4] it was 0.17 E-score; in [6] it was -0.0901 E-score; in assay [7], 0.0899 E-score; in assay [8] it was 0.0545 E-score.

As to AGAGGAAA, the binding signal was 0.115 E-score in assay [1]; 0.126 E-score in [2]; -0.0124 E-score in assay [3]; 0.0107 E-score in [4]; 0.0393 E-score in assay [12]; -0.0502 E-score in assay [9]. Besides, the results for the binding signal in assay [7] and in [8] were 0.0556 E-score and 0.0337 E-score, respectively.

In the case of ACGTACGC, the binding signal was 0.212 E-score in [1]; -0.0284 E-score in [2]; 0.26 E-score in assay [5]; 0.274 E-score in assay [12]; -0.00986 E-score in assay [6]; 0.0607 E-score in assay [7]. For the same sequence, the binding signal in assay [8] is -0.0607 E-score.
